# In PubChem BioAssay AID485281 (National Center for Advancing Translational Sciences (NCATS), 2010):
# The campaign covered roughly 350,000 compounds. About 260 (0.074%) were called active. The shares of active, inactive and inconclusive entries below differ from those in the screen. Calls come from the whole dose curve; as a rule, active = well fitted inhibition curve with a large enough effect; inconclusive = small, poorly fitted or top-dose-only effect; inactive = no such curve, though single readings can be large or run the other way. Potencies beside an inconclusive call are fits to weak or partial responses and may not hold up.
# Molecular target: Ferritin light chain (Equus caballus) (UniProt P02791)
# UniProt P02791, sequence (P02791 whole entry, looked up): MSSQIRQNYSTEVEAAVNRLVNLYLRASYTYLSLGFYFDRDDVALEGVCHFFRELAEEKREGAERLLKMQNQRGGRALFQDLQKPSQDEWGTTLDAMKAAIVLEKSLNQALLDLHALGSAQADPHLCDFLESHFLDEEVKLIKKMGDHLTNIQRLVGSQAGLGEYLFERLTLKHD
# Assay: qHTS Assay for Identification of Novel General Anesthetics; note: nearly all actives have a fitted effect of over 20% in size
# Details: apoferritin/1-aminoanthracene competitive binding, fluorescence; activity change, negative = displacement: at 77.5 µM (top of the series)
# How it was run: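 Horse-spleen apoferritin (10 uM) was mixed with 50% saturated 1-aminoanthracene in PBS, exposed to compounds for 10 min at room temperature, and read for fluorescence (ex 380 nm, em 535 nm). Competitive displacement was fitted with a four-parameter Hill equation.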
# % is set by controls: 0 for no effect and ±100 for the full control effect; potency is the fitted concentration of half-maximal effect; tags give direction and shape of the fitted curve.
Compound,Potency,"activity change, negative = displacement"
Cc1nn(Cc2ccccc2Cl)c2sc(C(=O)NCCCn3ccnc3)cc12,"inconclusive: 28.2 µM [inhibitor, partial curve]",–
CC1CCc2sc(C(=O)NCc3ccc(F)cc3)cc2C1 (stereo not given),"inconclusive: 3.55 µM [inhibitor, full curve]",–
C(=N/n1c2ccccc2c2ccccc21)/c1ccco1,–,inactive: -2.22%
CC(C)c1ccc(NC(=O)CSc2nc3ncccc3[nH]2)cc1,"inconclusive: 56.2 µM [inhibitor, single point]",–
COc1ccc(OCC(=O)NCCS(=O)(=O)N2CCN(c3cccc(Cl)c3)CC2)cc1,–,inactive: -2.73%
CCCN(CCC)CC(O)Cn1cc(/C=C/C(=O)c2ccc(OCC)cc2)c2ccccc21 (stereo not given),–,inactive: -10.9%
Cc1[nH]c2ccc(C(=O)N3CCN(c4cccc(Cl)c4)CC3)cc2c1C,–,inactive: -3.38%
CSc1ncccc1C(=O)NCC12CC3CC(CC(C3)C1)C2,"inconclusive: 22.4 µM [inhibitor, partial curve]",–
Nc1nc(SCc2ccc3c(c2)OCO3)n[nH]1,"inconclusive: 39.8 µM [inhibitor, partial curve]",–
COc1cc(CNCc2ccccn2)ccc1OCc1ccccc1Cl,"inconclusive: 50.1 µM [inhibitor, single point]",–
CC1CCCN(CC(O)COC(c2ccccc2)c2ccccc2)C1 (stereo not given),–,inactive: -21.4%
O=C(O)c1cc(N/N=C2/CC(c3ccccc3)Oc3ccccc32)ccc1Cl (stereo not given),"inconclusive: 56.2 µM [inhibitor, single point]",–
O=C(Nc1cccc(NC(=O)c2ccco2)c1)c1ccc2c(c1)OCO2,"inconclusive: 39.8 µM [inhibitor, single point]",–
Cc1nn(C)c(C)c1Nc1ccc(N2C(=O)C3CC=CCC3C2=O)cc1[N+](=O)[O-] (stereo not given),"inconclusive: 22.4 µM [inhibitor, partial curve]",–
O=C1CN(C(=O)OCc2ccccc2)c2ccccc2N1,"inconclusive: 25.1 µM [inhibitor, partial curve]",–
COC(=O)C1=C(COc2ccccc2)NC(=O)NC1c1ccc(Br)cc1 (stereo not given),"inconclusive: 31.6 µM [inhibitor, single point]",–
Cc1ccccc1Nc1nc(N)nc(COC(=O)CC2CC3CCC2C3)n1 (stereo not given),"inconclusive: 31.6 µM [inhibitor, single point]",–
Cc1[nH]c2ccccc2c1CCNC(=O)c1ccc2c(c1[N+](=O)[O-])C(=O)c1ccccc1C2=O,"inconclusive: 35.5 µM [inhibitor, partial curve]",–
C=CCc1c(C)nc2nc(SCC(=O)Nc3ccc(OCC)cc3)nn2c1C,"inconclusive: 5.62 µM [inhibitor, full curve]",–
O=C(CCC1CCCCC1)Nc1nncs1,"inconclusive: 15.8 µM [inhibitor, partial curve]",–
CC(C)c1ccc(Nc2ncnc3c2c(-c2ccccc2)cn3-c2ccccc2)cc1,–,inactive: -10%
Cc1ccnc(SCC(=O)c2ccc(Br)s2)n1,"inconclusive: 28.2 µM [inhibitor, partial curve]",–
CCOC(=O)c1cc2occc2n1CCCN1C(=O)c2ccccc2C1=O,"inconclusive: 39.8 µM [inhibitor, partial curve]",–

Compound,Potency,"activity change, negative = displacement"
Cc1ccc(NC(=O)c2ccc(F)c(S(=O)(=O)N3CCOCC3)c2)cc1F,"inconclusive: 15.8 µM [inhibitor, partial curve]",–
Nc1nc(SCc2ccccc2Cl)nc2nc3c(cc12)CCCC3,–,inactive: -13.2%
CCN(CC)S(=O)(=O)c1ccc(N2CCOCC2)c(NC(=O)C23CC4CC(CC(Cl)(C4)C2)C3)c1,–,inactive: 45.4%
C=CCOc1cccc(C2C(C(=O)c3ccc(C)o3)=C(O)C(=O)N2CCN(C)C)c1 (stereo not given),"inconclusive: 50.1 µM [inhibitor, single point]",–
CCOC(=O)c1c(C)sc(-c2c(-c3ccc(OC)c(F)c3)[nH]c3c2c(=O)[nH]c(=O)n3C)c1O,"inconclusive: 3.98 µM [inhibitor, full curve]",–
O=C(c1ccccc1)N1CCCN(c2nccc(C(F)(F)F)n2)CC1,–,inactive: -3.93%
Cc1cc(=O)oc2c(C)c(OCC(=O)N(C)C)ccc12,–,inactive: 1.75%
N#C/C=C/N1CCC(Cc2ccccc2)CC1,"inconclusive: 31.6 µM [inhibitor, single point]",–
O=C(CCC(=O)OCC(=O)c1ccc(Br)cc1)Nc1cccc2cccnc12,"inconclusive: 31.6 µM [inhibitor, partial curve]",–
COCCNC(=O)c1cc2c(Cl)nc3ccc(C)cc3c2s1,–,inactive: -8.86%
Cc1ccc(CN(Cc2ccco2)C(=O)c2oc3c(C)c(C)ccc3c2C)cc1,–,inactive: -1.38%
COc1ccc(N2Cc3cccc(C(=O)NC(C)CCc4ccco4)c3C2=O)cc1 (stereo not given),"inconclusive: 39.8 µM [inhibitor, partial curve]",–
CC1CCCN(C(=O)c2nn(C)c3c2CSc2ccccc2-3)C1 (stereo not given),"inconclusive: 35.5 µM [inhibitor, partial curve]",–
COc1ccc(NS(=O)(=O)c2ccc(NC(=S)NC(=O)c3cccc(F)c3)cc2)nn1,–,inactive: 10.2%
COc1ccc(CN2C(=O)C(NC(=O)c3ccccc3OC)(C(F)(F)F)N=C2c2ccccc2)cc1 (stereo not given),–,inactive: -10.4%
O=C(c1ccc(OC2CCN(Cc3cccc(OCCO)c3)CC2)cc1)N1CCCC1,"inconclusive: 35.5 µM [inhibitor, single point]",–
CCOc1ccc(S(=O)(=O)N2CC(=O)Nc3ccccc32)cc1C#N,–,inactive: 6.89%
Cc1cnc(NC(=O)CCc2ccccc2)s1,"inconclusive: 31.6 µM [inhibitor, partial curve]",–
Oc1ccc(Br)cc1CNc1nccs1,"inconclusive: 39.8 µM [inhibitor, single point]",–
O=C(CNC(=O)C1COc2ccccc2O1)N/N=C\c1cccc(O)c1 (stereo not given),"inconclusive: 28.2 µM [inhibitor, partial curve]",–
COc1ccc(C(C)=O)cc1COc1ccc([N+](=O)[O-])c(C)c1,"inconclusive: 28.2 µM [inhibitor, partial curve]",–
CCN(Cc1ccccc1)Cc1cccc([N+](=O)[O-])c1,"inconclusive: 28.2 µM [inhibitor, partial curve]",–
